# From article PMC12040169 (PLOS Biology, 2025)
# The list shows a part of the results.
# Tested on: T1, C. trachomatis L2/434/Bu expressing GFP (CTL2-GFP)
# T1 construct: L2/434/Bu GFP intracellular growth in HeLa cells
# Design: species or system HeLa; C. trachomatis total inclusion area by high-content imaging, normalised to DMSO
# Details: total inclusion area; 28.5 h, 10 µM; inhibitor
# In short: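 Post-fluorescence-read fixation, DNA staining with Hoechst and high-content imaging; GFP inclusion area and number per well, and nuclei counts, used as proxies for bacterial growth and host viability.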
row,Structure (SMILES),% of control remaining
1,COc1ccc(C(=O)N2CCC3(CCCN(CCN(C)C)C3)C2)cc1OC (stereo not shown) [CBK132873],103.251
2,CC(CNC(=O)c1cncc(O)c1)NC(=O)c1cncc(O)c1 (stereo not shown) [CBK278174],102.98
3,CCOC(=O)c1c(NC(=O)CN2CCCCC2)sc2c1CCCC2=O [CBK263224],119.301
4,O=C(NCCCO)c1c(O)c2ccccc2[nH]c1=O [CBK018215],65.1795
5,CC1CCN(S(=O)(=O)c2cccc(C(=O)NNC(=O)c3ccco3)c2)CC1 [CBK266796],117.316
6,CC(C)(C)OC(=O)NC1CCN(C(=O)CCC(=O)O)CC1 [CBK286604],72.9552
7,O=C1CC(C(=O)NCc2ccc(-c3csnn3)cc2)c2ccccc21 (stereo not shown) [CBK149301],85.8193
8,Cc1scc(C(=O)NN2CCN(C)CC2)c1-c1ccccc1 [CBK268115],110.267
9,Cc1ccc(CCn2nc(C)cc2C)cn1 [CBK021375],50.2868
10,CCc1cnc(CN(C)C2CCN(CC(=O)NCc3ccco3)C2)o1 (stereo not shown) [CBK306137],60.3541
11,CC(C)Nc1nc2ccccc2nc1SCCC(=O)O [CBK107858],100.446
12,COC(=O)c1sccc1Oc1ccc([N+](=O)[O-])cn1 [CBK066826],97.0953
13,COc1ccccc1Cc1cccc(C2CCN(C(=O)Cc3c[nH]c4ccccc34)CC2)n1 [CBK286226],110.945
14,COc1c(Cl)cc(Cl)cc1C(=O)NC(=S)Nc1sc2c(c1C#N)CCCC2 [CBK268741],94.5804
15,CC(C)Nc1cccnc1N1CCN(C(=O)c2cc3cc(NS(=O)(=O)CCc4ccncc4)ccc3[nH]2)CC1 [CBK012661],112.475
16,COc1ccc(C(=O)N2CCN(C)CC2)cc1Nc1cncc(-c2cc3ccccc3o2)n1 [CBK155266T],93.2172
17,COc1cncc(-c2cnc(N)c(NCc3cccnc3)n2)c1 [CBK063531],126.288
18,Nc1ncc(-c2cccc3cccnc23)nc1NCc1ccncc1 [CBK063622],107.785
19,Cc1cc(C(=O)N2CCCC(c3ccc(Cc4ccc(Cl)cc4)cn3)C2)nc(N(C)C)n1 (stereo not shown) [CBK286036],67.6131
20,CCOc1cccc2cc(-c3cc(=O)oc4cc(C)c(O)cc34)oc12 [CBK300517],70.5316
21,COc1ncc(-c2nccnc2OCCc2c[nH]c3ccccc23)c(OC)n1 [CBK106743],118.575
22,CCOC(=O)Cn1[nH]c(CO)c(Cc2c(Cl)cccc2Cl)c1=O [CBK103580],96.816
23,Cc1cc(C)nc(NC(=O)OCc2cc(C)nc(C)c2)c1 [CBK138231],103.553
24,COc1ccc(-c2cnccc2-n2ccnc2)cn1 [CBK177147],93.0511
25,FC(F)(F)c1cccnc1OCCN1CCOCC1 [CBK113456],89.182
26,CCC1(CC)OC(N[C@@H](C)c2ccc(Br)cc2)=NC1=O [CBK126665],79.9479
27,COc1cccc2cc(C(=O)NCc3cccs3)oc12 [CBK149799],87.5292

row,Structure (SMILES),% of control remaining
1,Cc1ccc(Nc2cc(-c3cccnc3)ncn2)cc1NS(C)(=O)=O [CBK091147],84.1481
2,CC(Oc1cccc(Br)c1)C(=O)NCCC(=O)O (stereo not shown) [CBK268024],104.648
3,Cc1oc(C)c(C(=O)Nc2cccc(C(=O)O)c2)c1C(=O)Nc1cccc(C(=O)O)c1 [CBK266472],116.891
4,Cc1ccc(S(=O)(=O)N[C@H]2CO[C@H]3[C@@H]2OC[C@@H]3n2nnnc2Oc2ccccc2)cc1 [CBK289485],90.9028
5,O=C(CSc1nnnn1C1CC1)c1cc2ccccc2o1 [CBK297158],76.8576
6,O=C(c1ccccc1)N1C[C@@H](c2ccsc2)[C@@H]2CN(Cc3ccccc3Cl)CC[C@@H]21 [CBK285613],79.4748
7,c1cc(-c2n[nH]c(C3CCNCC3)n2)ccn1 [CBK104676C],116.772
8,CC(C)(C)c1nnc(NS(=O)(=O)c2ccc([N+](=O)[O-])cc2)s1 [CBK045500],105.475
9,c1csc(Sc2nc3ccccc3nc2N2CCCC2)c1 [CBK115225],75.6513
10,Cc1cc(Cl)cc(Cl)c1S(=O)(=O)Nc1nc(CC(=O)O)cs1 [CBK000573],57.8606
11,COc1ccccc1CN(Cc1cccnc1)C(=O)CCN1CCCO1 [CBK306959],88.7135
12,CN(C)CC(=O)N/N=C/c1ccsc1 [CBK008256C],51.4475
13,CN1CCN(C(=O)Cn2cc(C(=O)Nc3ccc(F)cc3)ccc2=O)C(c2ccccc2)C1 (stereo not shown) [CBK286050],135.749
14,NCCn1cc(C(=O)N2Cc3cnn(Cc4ccc(F)cc4)c3C2)nn1 [CBK307461],116.402
15,Clc1ccc(N2CCN(c3cnc4ccccc4n3)CC2)cc1Cl [CBK066903],101.175
16,O=C(O)c1ccccc1N1C(=O)C2CC=C(Cl)CC2C1=O (stereo not shown) [CBK287007],116.54
17,COc1ccc(-c2[nH]c(=S)ncc2-c2ccccc2)c(O)c1 [CBK288447],80.5867
18,COc1ccc(-c2cc(C(=O)NCCS(C)(=O)=O)cnc2-c2ccc(Cl)cc2)cc1 [CBK037620],82.224
19,Cc1ccc(SCCCNCCN(C)C)cc1 [CBK267807C],110.232
20,COc1ccc(C(C)NC(=O)c2cn[nH]c2-c2ccc(Cl)cc2)cc1 (stereo not shown) [CBK288065],93.0663
21,COc1ccc(-c2nc(C3CCN(C(=O)NC(C)(C)C)CC3)n3ccccc23)cc1 [CBK047080],92.5993
22,COc1cccc(C(=O)NCCC(=O)N2CCc3c(nc[nH]c3=O)C2)c1 [CBK307231],37.9084
23,COc1ccccc1N1C(=O)CC(N2CCC(C(N)=O)(N3CCCCC3)CC2)C1=O (stereo not shown) [CBK265533],114.54
24,CS(=O)(=O)N(Cc1ccccc1)c1ccc(C(=O)N/N=C/c2ccccc2C(F)(F)F)cc1 [CBK262711],101.172
25,CC(=O)N[C@@H](Cc1ccccc1)C(=O)N1CC[C@H]2NC(=O)[C@H](Cc3ccccc3)NC(=O)C3(C/C=C/C[C@@H]2C1)CCOCC3 [CBK292190],122.745
26,COCCCNc1nc2c(-c3ccc(Cl)cc3)nnn2c2ccccc12 [CBK287770],80.7154
27,Cc1ccc(C2=CCN(CC(=O)Nc3nc(C)c(C)s3)CC2)o1 [CBK283607],87.2316

row,Structure (SMILES),% of control remaining
1,CN(C)S(=O)(=O)N(CC(=O)NCc1ccco1)c1ccccc1 [CBK267971],95.5025
2,NNC(=O)c1ccc(Oc2ccc(C(=O)NN)cc2)cc1 [CBK260995],96.3315
3,COc1cc(C(C)NC2CCN(c3nc(C)cs3)CC2)ccn1 (stereo not shown) [CBK304247],71.3394
4,COC(=O)c1c(NC(=O)C(=O)NCc2ccccn2)sc2c1CCCC2 [CBK269505],49.077
5,CN(c1ccccc1)C1CCN(c2nc3c(cnn3C)c(=O)[nH]2)CC1 [CBK305215],46.0068
6,O=C(COc1ccccc1)Nc1ccccc1Sc1ncnc2sc3c(c12)CCCC3 [CBK266171],125.49
7,CCOc1sc(=S)n(C)c1C(C)=O [CBK019515],63.3063
8,CC(C)c1cc(C(=O)N[C@@H]2CCOC[C@H]2Oc2ccc(CO)cc2)on1 [CBK306554],44.2405
9,CC(=O)Nc1cc(C(=O)NCCc2ccccc2)ccc1S(=O)(=O)c1ccc(C)cc1 [CBK071771],99.5172
10,C[C@@H]1CN(Cc2ccco2)CCN1C(=O)c1nccc2ccccc12 [CBK285489],92.6064
11,O=c1c(Cl)c(O)c2ccccc2n1Cc1ccccc1 [CBK291164],102.371
12,COc1ccc(CC(=O)NC2CC(C)(C)Cc3c2cnn3C)cc1 (stereo not shown) [CBK282886],124.18
13,CC(C)OC(=O)N1CCC(N(C)Cc2ccc(-c3ccc(S(C)(=O)=O)cc3)nc2)CC1 [CBK165261T],97.5863
14,CCc1nc2ccc(C(=O)Nc3cccc(OC)c3)cn2c1N(C)Cc1cccs1 [CBK145522],99.338
15,O=C1NC/C=C/CC2(CCN(Cc3c[nH]c4ccccc34)CC2)C(=O)NCCOc2ccccc21 [CBK292085],120.359
16,CCOC(=O)C1(C)C=C(Nc2cccc(C)c2)C(=O)N1c1ccccc1 (stereo not shown) [CBK263757],111.973
17,CCc1cc(S(=O)(=O)NC2CC(C)(C)NC(C)(C)C2)ccc1OC [CBK270097],78.0686
18,O=S(=O)(Nc1cccc(-c2nnn[nH]2)c1)c1cc(Br)c(Cl)s1 [CBK160374],105.092
19,Cc1ccc(S(=O)(=O)NC(=O)Nc2cccc(NC(=O)NS(=O)(=O)c3ccc(C)cc3)n2)cc1 [CBK296102],100.304
20,O=C1NCC2(CCN(C(=O)c3ccco3)CC2)Oc2ccccc21 [CBK282919],75.4952
21,Cn1cc(CCN2CCC(C(=O)NC(=O)Nc3ccccc3)CC2)c2ccccc21 [CBK034867],80.942
22,Cc1ccc2nsnc2c1NC(=O)Cc1cccc2ccccc12 [CBK266279],136.15
23,N/C(=N/OC(=O)c1ccc2nsnc2c1)c1ncon1 [CBK263847],53.1618
24,C=CCNC(=O)C1CCCN(c2nc3ccccc3n2C)C1 (stereo not shown) [CBK282872],87.5031
25,O=C(Nc1cccc(N2CCNCC2)c1)c1ccccc1 [CBK028255T],113.002
